# Screen size: about 150,000 compounds; about 540 (0.36%) showed an effect of 50% or more. Some of the results follow.
# Test system: Plasmodium falciparum
# Assay: Primary screen in NF54 nanoGlo assay, in single point, at 2uM, 72h; a lower Z score goes with more inhibition
# Assay type: functional, Erythrocyte
# Details: timepoint 72 hour
Compound,% Inhibition,Z score
O=C1CCCCCN1CCC(=O)N(Cc1ccc(-c2ccccc2)cc1)C[C@H]1CCCO1,-24%,2.38
O=C1c2c(nc3ccccc3c2-c2ccccc2)CN1c1ccccc1,-35%,4.16
CN(CCn1cnnc1)C(=O)Nc1cccc(C#Cc2ccccc2)c1,2%,-0.3
CCC(CC)N(CCOC)C(=O)Nc1ccc(C)c(NC(=O)N(CCOC)C(CC)CC)c1,14%,-1.49
Cn1nnc2c(N3CC(Cc4cccc(C(F)(F)F)c4)C3)ncnc21,-3%,0.56
Cc1cccc(-c2nc(CN3C[C@H]4CC[C@@H](C3)N(Cc3cscn3)C4=O)c(C)o2)c1,-9%,0.82
CCCC(=O)Nc1nnc(-c2cc3cccc(OC)c3o2)o1,-16%,1.84
Cc1nc(CNC(=O)c2cccc(S(=O)(=O)N3CC[C@@H](O)C3)c2)cs1,0%,-0.06
Cc1ccc(N2C[C@@H](C(=O)N3CCC(c4c[nH]c5ccccc45)(c4c[nH]c5ccccc45)CC3)CC2=O)c(C)c1,1%,-0.17
COc1ccc(CC(=O)Nc2c(C(=O)N3CCC(N4CCCCC4)CC3)oc3ccccc23)cc1,-7%,0.73
COc1cccc([C@H]2CCN(c3ncnc4c3CCNC4)C2)c1OC,-19%,1.88
Cc1cccc(CN(Cc2nc(C(=O)NCc3ccccc3)co2)C(C)C)c1,-7%,0.98
CC(C)(CNC(=O)N1CCCCC[C@H]1c1cccc(F)c1)N1CCOCC1,8%,-0.96
COCCN(C)CC(=O)N1CC[C@@]2(CCCN(CC3CCC3)C2=O)C1,-5%,1.09
Cc1[nH]nc(O)c1[C@H](CC(N)=O)C1=Cc2ccccc2OC1,26%,-2.97
C=C(C)CN1CCC(N[C@@H](C)c2ccnc(C)n2)CC1,-3%,0.35
Cc1c(Cl)cccc1S(=O)(=O)N1[C@H]2CCNC[C@@H]1CC2,-2%,0.3
CCc1nc(C(C)C)ccc1C(=O)NCCc1cc(C)no1,-4%,0.72
O=C(NC1CCCCC1)N1CCC[C@H]1c1nc(CCOCC2CC2)no1,-1%,0.27
Cc1ccc(-c2cc3c(=O)[nH]ccn3n2)cc1C,-11%,1.08
O=C(COc1ccccc1Cl)N1CCC[C@H]1c1nc2ccccc2s1,-10%,1.96

Compound,% Inhibition,Z score
CN1OCC(S(=O)(=O)N2CCN(Cc3ccccc3)CC2)C1c1cc(F)ccc1F (stereo unspecified),0%,-0.05
O=C(CCc1cc2n(n1)CCN(C(=O)[C@@H](O)c1ccccc1)C2)NCCO,-11%,1.37
Cn1ccnc1[C@H]1CCN(S(=O)(=O)CCC2CCCC2)C1,-8%,0.92
CC1CCCC(NC(=O)c2ccc(CN3C(=O)CCn4nccc43)cc2)C1C (stereo unspecified),-3%,0.52
Cc1nc(C)c(F)c(N(C)CCc2ncccn2)n1,-14%,3.05
Cc1cnc(C(=O)N[C@H]2CCCN(c3ccc(C#N)cc3F)C2)cn1,4%,-0.67
CCN(Cc1nc(-c2ccccc2)cs1)CC1CCN(C2CCN(C)CC2)CC1,13%,-1.74
C1CCc2nnc([C@H]3CC34CCN(Cc3nc(C5CC5)no3)CC4)n2CC1,-17%,2.67
COc1ccc(CNC(=O)CCn2nnc3cc(S(=O)(=O)N4CCCC4)ccc32)cc1,-18%,1.78
CC(C)C(=O)N1CC(C)(C)c2cc(S(=O)(=O)NC3CCCC3)ccc21,-4%,0.53
CCC(=O)[C@@H]1CCCCN1C(=O)Cc1ccc(C)nc1,-8%,1.19
Cc1nc2c(s1)CCC[C@@H]2Nc1nccnc1C#N,-3%,0.45
CC(C)CC[C@@]1(C2CC2)NC(=O)N(Cc2ccc(C#N)cn2)C1=O,-14%,2.83
Cc1c(C2CCN(C(=O)c3ccccc3Br)CC2)noc1N,-1%,0.22
C#CC(C)NC(=O)c1cn(CC2CCCN2C(=O)OC(C)(C)C)nn1 (stereo unspecified),0%,-0.01
COC(=O)c1cnc(NC(=O)c2ccnn2CC(C)C)c(O)c1,-7%,0.87
O=C(NC1CCCCC1)[C@@H]1Cc2[nH]cnc2CN1Cc1cc2ccccc2o1,1%,-0.12
CC(=O)Nc1ccc(NC(C)(C)C)cc1,-40%,4.72
COC[C@@]1(CNS(=O)(=O)c2ccc(F)cc2)C[C@@H](O)[C@@H](O)C1,-2%,0.25
Cc1nc2c(c(N3CCC(NC(=O)NCc4ccc(F)cc4)CC3)n1)CCCC2,-11%,1.39
CCC(CC)N(Cc1ccc2c(c1)OCO2)C(=O)c1ccncc1,-2%,0.37

Compound,% Inhibition,Z score
OCC1(CCCc2ccccc2)CCN(Cc2cc(F)ccc2F)CC1,-16%,2.15
CCc1nnc(CN(C)CCc2ccncc2)n1C,-1%,0.13
COCCNS(=O)(=O)c1cc(CN2C(=O)C3CCCCC3C2=O)ccc1C (stereo unspecified),-10%,1.3
C=CCN(Cc1ccc(F)cc1)C(=O)c1ccc(CCN2CCCC2)nc1,-9%,1.18
Cc1cc(C)nc(NC(=O)CC(C)C)c1,-5%,0.86
O=C(Nc1cc(Cl)ccc1Cl)c1cc2c(ccc3ccccc32)o1,0%,0.03
CCOc1ccc(NC(=O)c2sc3nc(C)cc(C)c3c2C)cc1S(=O)(=O)N1CCCCC1,-15%,2.39
CN1CCN([C@H]2COC[C@@H]2NC(=O)C2CCCC2)CC1,-5%,0.86
CCCN(CCN1CCN(CC)CC1)C(=O)c1scc(C)c1Cl,-7%,1.11
Cn1nccc1NC(=O)N1CC2(CCCCC2)[C@H]1c1ccccc1,-4%,0.38
COc1cccc(CNC[C@@]2(COc3cccnc3)C[C@@H](O)[C@@H](O)C2)c1,-11%,1.73
O=C([C@@H]1C[C@@H](F)CN1C(=O)c1cncc(N2CCOCC2)c1)N1CCOCC1,13%,-1.29
CCn1c(-c2cc(NC(=O)c3ccc(C)c(F)c3)[nH]n2)cc2c(OC)cccc21,14%,-1.64
Cc1ccc(C)c(Cn2cc(S(=O)(=O)N3CCCCC3)ccc2=O)c1,-4%,0.86
O=C(CCCn1ccnc1)N[C@H]1CC[C@@H]2CCC[C@@H]21,6%,-0.82
Cc1cc(CS(=O)(=O)Nc2c(C)cccc2F)no1,-12%,1.56
Cc1ccc(C)c(S(=O)(=O)Nc2nc3ccccc3nc2Nc2ccc3c(c2)OCO3)c1,-2%,0.43
N#C[C@@H](c1ccc(Cl)c(Cl)c1)c1cnccn1,11%,-1.65
Cc1nc(C2CC2)oc1C(=O)N1CCCCC2CCCCC21 (stereo unspecified),-7%,0.7
CN(Cc1cnc(NCc2ccccc2)nc1)[C@H]1COC[C@@H]1O,3%,-0.44
CC(C)(C)n1cc(C#N)c(NS(=O)(=O)c2c[nH]c3ccccc23)n1,-14%,1.9

Compound,% Inhibition,Z score
CN(Cc1csc(-c2ccccc2)n1)Cc1nc(CC2CC2)no1,-7%,1.36
CCOC(=O)c1[nH]c(=O)[nH]c1[C@H]1C[C@@H](NC(C)=O)C[C@@H](c2ccccc2)O1,5%,-0.6
Cc1nc(C(=O)O[C@@H](C)C(=O)Nc2ccccc2)c2n1CCCC2,-2%,0.28
O=C(Cn1c(=O)n(-c2ccccc2)c(=O)n1CC(=O)N1CCCCC1)N1CCCCC1,-2%,0.27
Nc1ccnc(-c2ccccc2CN2CCOCC2)c1,2%,-0.34
Cc1cc(S(=O)(=O)NC[C@H]2CCCCN2)c(C)o1,4%,-0.6
Cc1ccc(C(=O)C(=O)NCc2ccc(N(C)C)c(F)c2)cc1,-7%,1.4
Cc1c(CN(C)Cc2cnn3cccnc23)cnn1C,2%,-0.27
CCOC(=O)[C@H]1CCCN(CCC(=O)NC(=O)NC2CCCC2)C1,-3%,0.3
Cc1ccc(-n2nnnc2C(C)(C)Nc2ccc3c(c2)OCCO3)cc1,-8%,1.09
NC(=O)CN(Cc1ccccc1)S(=O)(=O)CC1CCCC1,-2%,0.44
CCN1CC[C@H](NC(=O)OCC(F)(F)F)C(F)(F)C1,-8%,1.7
CS(=O)(=O)N1C[C@H]2CC[C@@H](C1)N(C(=O)c1cc(F)c(F)cc1Cl)C2,6%,-1.12
Cc1ccc(CN2C(=O)OC(c3ccc(NC(=O)c4ccco4)cc3)C2C(=O)N(C)Cc2ccccc2)cc1 (stereo unspecified),-20%,2.84
C[C@H]1CN(c2ccc(F)cc2C#N)CCN1S(C)(=O)=O,-1%,0.07
Cc1cc(C)n(Cc2nc(C3CN4CCCCC4CO3)no2)n1 (stereo unspecified),-2%,0.36
O=C(NCc1ccccc1)c1cc2n(n1)CCCN(Cc1ccc(Cl)cc1)C2=O,2%,-0.4
Cc1nc2cc(CNC(=O)CC3CC3)ccc2n1C1CC1,-4%,0.38
CCc1ccccc1NC(=O)CN(C)[C@@H](CC)C(=O)Nc1cc(C)on1,-7%,1.22
CC1(C)COCCN1CCNC(=O)N1CCO[C@H](c2ccc(F)cc2Cl)C1,-4%,0.74
